The results in this text go back to patent publication US20200181277A1 (Genmab, published 2020).

Assay [1] deals with T1, purified human C1q (human, UniProt P02745; P02746; P02747).
T1 construct: Purified C1q, Quidel Cat # A400; multimer of A, B and C chains
The assay is described as follows: C1q binding ELISA (Example 6): plate coated with 1 µg/mL antibody, purified C1q titrated; SD 6.1, n 3. For orientation: ELISA stands for enzyme-linked immunosorbent assay.

Assay [2] has as its target T1, purified human C1q. Description: C1q binding ELISA: plate coated with 1 µg/mL antibody, purified C1q titrated 0.010-30 µg/mL; SD 12.6, n 6.

B1: IgG1-hDR5-01-G56T-E430G (antibody)
heavy: EVQLQQSGAEVVKPGASVKLSCKASGFNIKDTFIHWVKQAPGQGLEWIGRIDPANTNTKYDPKFQGKATITTDTSSNTAYMELSSLRSEDTAVYYCVRGLYTYYFDYWGQGTLVTVSSASTKGPSVFPLAPSSKSTSGGTAALGCLVKDYFPEPVTVSWNSGALTSGVHTFPAVLQSSGLYSLSSVVTVPSSSLGTQTYICNVNHKPSNTKVDKRV[human IgG1 Fc with E430G (EU numbers) left out]
light: EIVMTQSPATLSVSPGERATLSCRASQSISNNLHWYQQKPGQAPRLLIKFASQSITGIPARFSGSGSGTEFTLTISSLQSEDFAVYYCQQGNSWPYTFGQGTKLEIKRTVAAPSVFIFPPSDEQLKSGTASVVCLLNNFYPREAKVQWKVDNALQSGNSQESVTEQDSKDSTYSLSSTLTLSKADYEKHKVYACEVTHQGLSSPVTKSFNRGEC
notes: IgG1,kappa; also called IgG-hDR5-01-G56T-E430G
What is called EC50 is the midpoint of the concentration-response curve. Read a high EC50 as a need for much substance. On to B1, for which the 50% effective concentration (EC50) with purified human C1q [1] came to 15.4 µg/mL; in the assay with purified human C1q [2], 20.7 µg/mL.
